# Data published in PubChem BioAssay AID1347073 (National Center for Advancing Translational Sciences (NCATS), 2019).
# The campaign covered roughly 45,000 compounds. About 200 (0.44%) were called active. Inconclusive results (about 7%) are left out. Calls follow the shape of the dose curve; as a rule, active = well fitted activation curve with a large enough effect; inconclusive = small, poorly fitted or top-dose-only effect; inactive = no such curve, though single readings can be large or run the other way. The list shows a part of the results.
# Assay: qHTS of TDP-43 Inhibitors: NCGC Sytravon Library Screen; also: 0% is about no effect; nearly all actives have a fitted effect of over 55% in size
# Settings: yeast TDP-43 toxicity rescue, BacTiter-Glo growth, 24 h; series mostly up to 46.1 µM; growth rescue (activation): at the top concentration
# Outline: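 TDP-43-expressing yeast, pregrown in raffinose, seeded at OD600 0.02 in galactose medium with compound for 24 hr at 30 deg C. Growth read by BacTiter-Glo luminescence, so rescue of toxicity appears as activation.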
row,SMILES,growth rescue (activation)
1,O=C(NN1C(=O)c2ccccc2C1=O)c1ccc2c(c1)C(=O)N(CC1CCCO1)C2=O (stereo not drawn),inactive: 27.7%
2,CCCS(=O)(=O)NC(=O)C1(C)CCN(C(=O)c2cc(C)oc2C)C1 (stereo not drawn),inactive: 3.36%
3,O=C(NCCCN1CCCCCC1)c1ccc(CS(=O)(=O)Cc2ccccc2F)o1,inactive: -14.9%
4,COc1ccc(C)cc1S(=O)(=O)NCc1cccs1,inactive: 14.3%
5,COc1ccc(CCNC(=O)c2ccc(OCc3c(C)noc3C)c(OC)c2)cc1,inactive: 23.3%
6,CC1CN(CC(=O)NCc2ccc(F)cc2)CC(C)O1 (stereo not drawn),inactive: 4.63%
7,COc1ccc(OC)c(S(=O)(=O)N2CCCC(C(=O)NCc3ccccn3)C2)c1 (stereo not drawn),inactive: 3.4%
8,CC1(C(=O)Nc2cccc(NS(C)(=O)=O)c2)Cc2c(-c3cccc(C(N)=O)c3)ccnc2O1 (stereo not drawn),inactive: 4.76%
9,O=C(c1ccc2c(c1)OCO2)N1CCN(c2ccccn2)CC1,inactive: 11.3%
10,Cc1cccc(C)c1OCC(=O)NC(Cc1c[nH]c2ccccc12)C(=O)O (stereo not drawn),inactive: -5.17%
11,O=S(=O)(c1ccc(OCC(O)CNC23CC4CC(CC(C4)C2)C3)c(Cl)c1)N1CCOCC1 (stereo not drawn),inactive: 8.97%
12,Cc1c(C(=O)Nc2cccc(S(=O)(=O)N3CCOCC3)c2)oc2ccccc12,inactive: -0.938%
13,COc1cc(C(C)=O)ccc1OCC(=O)NCCCn1nc(C)cc1C,inactive: -0.089%
14,CC1(Cc2ccccc2OC(F)(F)F)C(=O)Nc2c(Cl)ccc(Cl)c21 (stereo not drawn),inactive: -4.61%
15,C/C(=N\NS(=O)(=O)c1ccccc1)c1cccc(NC(=O)c2cccc(Cl)c2)c1,inactive: 7.34%
16,CC(=O)Nc1ccc(S(=O)(=O)NNC2=NS(=O)(=O)c3ccccc32)cc1,inactive: -1.5%
17,C=CCN(C(=O)c1csnn1)C(C(=O)NCc1ccc(F)cc1)c1ccccc1 (stereo not drawn),inactive: 15.9%
18,O=C(CCCN1C(=O)/C(=C/c2ccccc2OC(F)F)SC1=S)Nc1cccnc1,inactive: 9.14%
19,CCN(c1cccc(C)c1)S(=O)(=O)c1csc(C(N)=O)c1,inactive: 0.49%
20,Cc1ccc(NS(=O)(=O)c2ccc(Cl)c(NC(=S)NC(=O)C3CCCCC3)c2)cc1Cl,inactive: 12.9%
21,CC(OC(=O)CCN1C(=O)c2cccc([N+](=O)[O-])c2C1=O)C(=O)Nc1cc(Cl)cc(Cl)c1 (stereo not drawn),inactive: -10.3%
22,CCCS(=O)(=O)N1CCC(C(=O)NCCCOC)CC1,inactive: -3.35%

row,SMILES,growth rescue (activation)
1,COCCNC(=O)C1(C)CCN(C(=O)c2ccc(F)c(C)c2)C1 (stereo not drawn),inactive: -8.71%
2,CC1(C)Cc2nc3oc4c(=O)n(CC(=O)Nc5ccccc5)cnc4c3cc2CO1,inactive: 11.8%
3,CCCCn1c(O)c(N=NC(=O)c2ccccc2NS(=O)(=O)c2cccs2)c2ccccc21,inactive: -20.8%
4,CCOc1cc(/C=C\c2nc(O)c([N+](=O)[O-])c(=O)[nH]2)ccc1OC(C)C,inactive: 14.1%
5,O=C(O)/C(=C\c1ccccc1OC(F)F)Sc1nnc(-c2ccc(F)cc2)o1,inactive: -50.3%
6,CC(C)c1ccc(/C=C2\NC(=O)NC2=O)cc1,inactive: 7.87%
7,COc1ccc(/C=C/C(=O)c2ccc3c4c(cccc24)CC3)cc1OC,inactive: 3.15%
8,Cc1cc(C(=O)NC2CCC(O)CC2)c(C)o1 (stereo not drawn),inactive: 24.6%
9,Cc1ccc(NCc2nnc(SCC(=O)O)n2Cc2ccccc2)cc1Cl,inactive: -1.35%
10,Cc1ccc(C)c(OCC(=O)Nc2ccc(S(=O)(=O)Nc3ccccn3)cc2)c1,inactive: -3.35%
11,CCc1cccc(CC)c1NC(=O)c1ccc(-n2cncn2)nc1,inactive: -10.3%
12,O=C(O)c1cnc2[nH]c3ccccc3n2c1=O,inactive: 26.8%
13,CCOC(=O)c1c(NC(=O)CCNCc2ccco2)sc2c1CCC2,inactive: -7.14%
14,COc1ccc(N2CCN(S(=O)(=O)c3cnc[nH]3)CC2)cc1,inactive: -17.9%
15,COc1cccc(C2C3=C(CC(C)(C)CC3=O)Nc3n[nH]c(C)c32)c1 (stereo not drawn),inactive: 18.3%
16,CCC(C)(C)C1CCC(=NNS(=O)(=O)c2ccc(C)c([N+](=O)[O-])c2)CC1 (stereo not drawn),inactive: 33.8%
17,Cc1ccc(C2(c3ccc(C)cc3)CC2C(=O)NC(C)C)cc1 (stereo not drawn),inactive: 0.312%
18,O=C1CN(C(=O)CSc2nc3ccccc3c(=O)n2Cc2ccc(F)cc2)c2ccccc2N1,inactive: 7.92%
19,COCCNC(=O)C1(C)CCCN(C(=O)c2ccc(C(=O)OC)cc2)C1 (stereo not drawn),inactive: 5.86%
20,Cc1[nH]ncc1-c1nc2ccccc2[nH]1,inactive: 5.98%
21,COCc1c(C(=O)N2CCc3ccccc32)oc2ccccc12,inactive: 13%
22,COc1ccc(N(Cc2ccccc2)N=O)cc1,inactive: 24.6%

row,SMILES,growth rescue (activation)
1,O=C1NC2(CCCCCC2)C(=O)N1Cc1ccc(F)cc1Cl,inactive: 14.7%
2,CCN(C(=O)CSc1nnc2c3ccccc3n(CC)c2n1)C1CCS(=O)(=O)C1 (stereo not drawn),inactive: 11%
3,O=C(Cn1cccc1C(=O)c1ccccc1)NCc1ccccc1Cl,inactive: 14.8%
4,CCOc1cc(/C=C2/SC(=S)N(CC3CCCO3)C2=O)ccc1O (stereo not drawn),inactive: -18.3%
5,CC(C)(C)C(=O)/C(C#N)=C/c1ccc(O)cc1,inactive: 6.39%
6,Cc1c(Cl)cccc1NC(=O)Cn1nnc(-c2nc(-c3ccccc3)no2)c1N,inactive: 20.7%
7,Cc1cc(C)nc(Nc2nc(C(N)CCc3ccccc3)cs2)n1 (stereo not drawn),inactive: 14.4%
8,CN(C)CCCNC(=O)c1ccc(Oc2ccccc2)cc1,inactive: -13.2%
9,Cc1cc(=O)[nH]c(SCCc2ccccc2)n1,inactive: -0.213%
10,N#Cc1ccc(COC(=O)c2cnc(Cl)c(Cl)c2)cc1,inactive: 18.9%
11,O=C(NC(=S)Nc1ccccc1CO)C1CCCCC1,inactive: 10.1%
12,COc1ccc(C(=O)NCCCSc2ccccc2)cc1F,inactive: 19.4%
13,Cc1coc2cc3oc(=O)c(CCC(=O)O)c(C)c3cc12,inactive: -24%
14,Cc1ccccc1Nc1c(-c2ccc(N3CCOCC3)cc2)nc2cnccn12,inactive: 28.1%
15,COc1ccccc1NC(=O)CCSc1nnnn1C,inactive: 19.8%
16,Cc1ccc(S(=O)(=O)Nc2c(C)n(C)n(-c3ccccc3)c2=O)cc1C(=O)OCC(=O)N1CCCC(C)C1 (stereo not drawn),inactive: 21.7%
17,O=C(CCc1ccccc1)OCCOC(=O)CCc1ccccc1,inactive: 1.77%
18,CCOC(=O)N1CCC(=NNC(N)=O)CC1,inactive: -11.7%
19,C/C(=N\Nc1nc2ccccc2s1)c1cccs1,inactive: -3.49%
20,CCCN(CC1CCCO1)C(=O)c1cc(COc2ccc(F)cc2F)on1 (stereo not drawn),inactive: 20.3%
21,CCN(CC)c1nc(C#N)nc(N(CC)CC)n1,inactive: 27.6%
22,CCC1(c2ccc(Cl)cc2)NC(=O)N(CC(=O)N2CCN(C(=O)c3ccco3)CC2)C1=O (stereo not drawn),inactive: 19.1%

row,SMILES,growth rescue (activation)
1,CCn1c(SCC(O)c2ccccc2)nnc1-c1ccccc1 (stereo not drawn),inactive: -4.03%
2,NC(=O)C1CCN(c2oc(-c3cccs3)nc2S(=O)(=O)c2ccc(Br)cc2)CC1,inactive: 3.73%
3,Cc1ccc(S(=O)(=O)/N=C2/NC(=O)/C(=C/c3ccccc3)S2)cc1,inactive: -1.98%
4,CCNc1nc(SCC(=O)Nc2ccc(Cl)c(Cl)c2)nc(N2CCOCC2)n1,inactive: 23.1%
5,C/C(=N/NC(=O)CSc1nc2ccccc2n1C)c1ccncc1,inactive: -0.636%
6,Cc1nc2ccc(NC(=O)Cc3ccc(Br)cc3)cc2s1,inactive: -2.41%
7,COc1ccc(C(C)(NC(C)=O)c2nc(-c3ccc(F)cc3OC)cs2)cc1 (stereo not drawn),inactive: 19.1%
8,CC(CN1CCN(C)CC1)OC(=O)c1ccc(Cl)cc1 (stereo not drawn),inactive: -11.8%
9,COc1ccc(N2C(=O)C(CN3CCN(C)CC3)C2c2ccccc2)cc1 (stereo not drawn),inactive: -2.98%
10,O=C(NN1C(=O)/C(=C/c2ccc(O)c(O)c2)SC1=S)c1ccccc1,inactive: -15.8%
11,CNC(=O)CS(=O)(=O)CC(=O)Nc1cc(OC(C)C)c(Cl)cc1Cl,inactive: -10.5%
12,C/C(=N\NC(=O)C(N)=O)c1ccc(O)cc1O,inactive: -2.59%
13,CN(Cc1ccon1)Cc1cn[nH]c1-c1ccc(-c2ccccc2)cc1,inactive: 7.54%
14,CCNC(=O)N1CCCC(C(=O)c2ccc3cc(OC)ccc3c2)C1 (stereo not drawn),inactive: 4.25%
15,O=C(NCCCc1nc2ccccc2n1Cc1cccc(Cl)c1)C1CCCCC1,inactive: 5.65%
16,COc1ccc(CN(CC(=O)NCc2ccccc2)C(=O)CCC(=O)Nc2nccs2)cc1,inactive: -3.05%
17,O=C(COC(=O)c1ccccc1-c1nc2ccccc2s1)NC1CCS(=O)(=O)C1 (stereo not drawn),inactive: -0.982%
18,O=c1oc(-c2ccccc2[N+](=O)[O-])nc2ccccc12,inactive: 14.1%
19,COc1cc(/C=C(\C#N)C(=O)NC(C)C)ccc1OCc1ccc(C(=O)O)cc1,inactive: 3.57%
20,C=CCOc1ccc(/C=N/NC(=O)C(=O)N2CCCCCC2)cc1OC,inactive: 4.18%
21,CC(C)C1Oc2cc3oc(=O)ccc3cc2C1=O (stereo not drawn),inactive: 9.93%
22,COc1ccc(Br)c(C(=O)N2CCCC2(C)C(=O)NCC(C)C)c1 (stereo not drawn),inactive: -2.19%

row,SMILES,growth rescue (activation)
1,CCCN1CCc2c(sc3nc(SC)n(-c4ccccc4)c(=O)c23)C1,inactive: -6.67%
2,CCCCN(CC)CCNC(=O)c1cc2c(=O)[nH]c3ccccc3c2s1,inactive: -8.41%
3,CC(C)OC(=O)CC(=O)CSc1nc(-c2ccc(F)cc2)cc(-c2ccccc2)c1C#N,inactive: 10.1%
4,CC(NC(=O)C1=CC=CN2CCS(=O)(=O)N=C12)c1ccc(Cl)c(Cl)c1 (stereo not drawn),inactive: -1.93%
5,Cn1cnnc1SCc1ccc(C(=O)N/N=C(/CCC(=O)O)c2ccc(C(C)(C)C)cc2)cc1,inactive: 6.17%
6,CCCCC(CC(C)O)c1n[nH]c(=S)n1-c1ccccc1 (stereo not drawn),inactive: -19.3%
7,CCOC(=O)c1ccc(-c2ccc(/C=N/NC(=O)CN(c3ccccc3Cl)S(C)(=O)=O)o2)cc1,inactive: -5.81%
8,CCCOc1ccc(CNC(=O)C2CCN(C(=O)c3sccc3-n3cccc3)CC2)cc1,inactive: 15.3%
9,N#CCn1c(CN2CCCC2)nc2ccccc2c1=O,inactive: 9.54%
10,CC(C(=O)N(C)C1CCCCC1)N1CCC(C(N)=O)CC1 (stereo not drawn),inactive: 11.6%
11,O=S(=O)(NCC1CCCO1)c1ccc(NS(=O)(=O)c2ccc(F)cc2)cc1 (stereo not drawn),inactive: 8.35%
12,CC(=O)c1ccc2c(c1)OCCOCCOCCOCCOCCO2,inactive: -6.75%
13,CCNC(=O)C1CC(=O)N(CCCc2ccccc2)C(=Nc2ccccc2)S1 (stereo not drawn),inactive: 4.39%
14,CCN(CC)c1ncnc2c1ncn2[C@H]1CN(C2CCCC2)C[C@@H](CO)O1,inactive: 1.1%
15,C[C@H](NC(N)=O)C(=O)Nc1ccc(OCc2ccccc2)cc1,inactive: 22.1%
16,CC1CN(S(=O)(=O)c2ccc(C(=O)Nc3nc(-c4cc5ccccc5o4)cs3)cc2)CC(C)O1 (stereo not drawn),inactive: 7.48%
17,Nc1cccc(C(=O)Nc2ccc3nc(-c4cccnc4)[nH]c3c2)c1,inactive: 4.4%
18,O=C(COC(=O)Cc1ccc(Cl)cc1)Nc1ccccc1-c1ccccc1,inactive: 23.3%
19,NC(=O)CCCSc1nc2ccccc2[nH]1,inactive: -1.23%
20,O=C(COc1cccnc1[N+](=O)[O-])N1CCc2ccccc21,inactive: 3.22%
